Test results from the BET-seq Pho4 binding data (Le et al. 2018).
Some of the results follow. These are noisy estimates, calculated here from bound and input reads.

Target: T1, Pho4 (S. cerevisiae) (UniProt P07270)
T1 sequence: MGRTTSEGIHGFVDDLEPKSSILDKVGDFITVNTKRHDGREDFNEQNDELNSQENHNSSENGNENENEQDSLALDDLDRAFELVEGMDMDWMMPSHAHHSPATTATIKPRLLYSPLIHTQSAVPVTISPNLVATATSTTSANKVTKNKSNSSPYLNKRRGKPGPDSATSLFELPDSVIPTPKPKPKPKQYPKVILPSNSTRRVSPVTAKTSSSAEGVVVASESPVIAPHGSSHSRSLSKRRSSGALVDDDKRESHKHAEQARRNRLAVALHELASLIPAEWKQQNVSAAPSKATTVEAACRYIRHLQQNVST
Assay: relative binding free energy (BET-seq); higher = weaker binding
Settings: reference: library average

Sequence	relative binding free energy
TCAGTCACGTGGTTTG	0.09 kcal/mol
ATCATCACGTGAGTTG	0.22 kcal/mol
GGTGGCACGTGATGAG	-0.02 kcal/mol
TGATTCACGTGTTATA	0.2 kcal/mol
CCATGCACGTGCGGGG	0.08 kcal/mol
GGGCACACGTGTGGGG	0.11 kcal/mol
ATTAACACGTGATTTG	0.15 kcal/mol
AAAAGCACGTGTATTT	-0.05 kcal/mol
GGTCTCACGTGGACGG	0.33 kcal/mol
TGGTTCACGTGTACTG	0.19 kcal/mol
GAGGGCACGTGGAGGT	-0.1 kcal/mol
GTTGGCACGTGCAGCT	-0.06 kcal/mol
TGTCTCACGTGTGGTC	0.38 kcal/mol
CTGGGCACGTGACGTG	0.02 kcal/mol
GAGGTCACGTGTATGT	0.2 kcal/mol
CGGTACACGTGTGGTG	0.03 kcal/mol
TACTTCACGTGTTTTG	0.33 kcal/mol
CTTCACACGTGTTGTT	0.1 kcal/mol
CAGTTCACGTGTTGCT	0.47 kcal/mol
GTGTACACGTGGGGGT	-0.14 kcal/mol
TGGATCACGTGGAAGG	0.24 kcal/mol
TAGATCACGTGTGTGC	0.13 kcal/mol
ATGACCACGTGGTAGG	-0.1 kcal/mol

Sequence	relative binding free energy
TGGTACACGTGGGGTT	-0.07 kcal/mol
GTGCCCACGTGTGTTG	-0.08 kcal/mol
GTGGCCACGTGTGTAT	-0.01 kcal/mol
GTTTTCACGTGCTAGA	0.43 kcal/mol
TGGGACACGTGTTCTT	0.04 kcal/mol
TATGACACGTGTGGGA	0.15 kcal/mol
TAATTCACGTGGTGGA	0.12 kcal/mol
AGCGACACGTGTTGGT	0.08 kcal/mol
GTCATCACGTGGTCTG	0.11 kcal/mol
TAAGGCACGTGGGTCA	-0.18 kcal/mol
GGTGGCACGTGTTGAT	-0.09 kcal/mol
TATGCCACGTGGAGTG	-0.08 kcal/mol
TTTTCCACGTGGGGAG	0.1 kcal/mol
AAATACACGTGTTTGG	-0.04 kcal/mol
ATCGGCACGTGTGGCA	0.01 kcal/mol
AAATTCACGTGCTGGT	0.24 kcal/mol
AATTGCACGTGTGTGT	0.02 kcal/mol
TGAGGCACGTGGGTAG	-0.22 kcal/mol
AGTGACACGTGTTGGG	0.05 kcal/mol
TTTCGCACGTGAGAGG	0.24 kcal/mol
TGAGCCACGTGCGTTT	-0.03 kcal/mol
CTGGACACGTGTGTTT	0.07 kcal/mol
TCCGTCACGTGGGTAT	0.06 kcal/mol

Sequence	relative binding free energy
AGGGTCACGTGAAATG	0.22 kcal/mol
GAGTACACGTGGGGTA	-0.05 kcal/mol
ACTTTCACGTGTGGTA	0.26 kcal/mol
TGGATCACGTGTAGGA	0.17 kcal/mol
GTTTCCACGTGAGGGC	0.29 kcal/mol
ATAAGCACGTGGTTTG	-0.13 kcal/mol
ACTCGCACGTGGTTGG	0.05 kcal/mol
TCAGTCACGTGGGTCT	0.04 kcal/mol
TTTAACACGTGCATTT	0.07 kcal/mol
ACTGGCACGTGTGATT	-0.01 kcal/mol
GATTGCACGTGGGAGA	0.19 kcal/mol
TGGGGCACGTGCAGGT	-0.17 kcal/mol
ATGTGCACGTGGCCTG	-0.19 kcal/mol
GGAGTCACGTGAGCGG	0.26 kcal/mol
GAGGTCACGTGGGGCA	0 kcal/mol
TTATTCACGTGGGCTC	0.33 kcal/mol
AATGGCACGTGCTGCG	-0.16 kcal/mol
TGCTTCACGTGAGGAT	0.24 kcal/mol
TGTTGCACGTGTGGCT	0.11 kcal/mol
AGTAGCACGTGTAAAT	0.04 kcal/mol
GTAGGCACGTGAGTAA	0.19 kcal/mol
GGACTCACGTGGGTTG	-0.01 kcal/mol
TTGCTCACGTGTGGTC	0.29 kcal/mol

Sequence	relative binding free energy
TGAGGCACGTGGTGCA	-0.29 kcal/mol
AGCGGCACGTGAGAGG	0.25 kcal/mol
GTGGGCACGTGTGAGC	-0.01 kcal/mol
TAGGTCACGTGACTTA	0.24 kcal/mol
GTACGCACGTGGTTCG	0.06 kcal/mol
TATTTCACGTGTGCTA	0.27 kcal/mol
GTGTGCACGTGTGTCG	0.02 kcal/mol
GTGAGCACGTGGCGGA	0.01 kcal/mol
GGATACACGTGCGGGT	0.15 kcal/mol
AAGTCCACGTGGGGGC	-0.01 kcal/mol
AAGTCCACGTGTTGGT	0.05 kcal/mol
TGATGCACGTGTCTGG	-0.15 kcal/mol
GCGGGCACGTGGGCAT	-0.26 kcal/mol
TTCATCACGTGTGCTT	0.26 kcal/mol
TATCGCACGTGGTTTA	-0.07 kcal/mol
TGAGTCACGTGAGCTA	0.38 kcal/mol
TAATTCACGTGGTGGT	0.23 kcal/mol
TTGGGCACGTGCTGAA	-0.28 kcal/mol
TTGCTCACGTGTGTAA	0.3 kcal/mol
TCGTGCACGTGGCGTG	-0.09 kcal/mol
TTCTTCACGTGAGGTC	0.38 kcal/mol
TCTATCACGTGTATGG	0.15 kcal/mol
TTTTTCACGTGTATTA	0.26 kcal/mol

Sequence	relative binding free energy
AGGAGCACGTGTATAT	-0.07 kcal/mol
TTGGACACGTGGTAGT	0.03 kcal/mol
TTTGACACGTGATTGA	0.07 kcal/mol
AGTTTCACGTGTGGTG	0.4 kcal/mol
GAAGGCACGTGGGAGC	-0.13 kcal/mol
GGACGCACGTGTGGGT	0 kcal/mol
GAACACACGTGGGGTG	0.01 kcal/mol
TTTCGCACGTGGATTA	-0.02 kcal/mol
GGCAGCACGTGTGGTC	0.1 kcal/mol
GGATACACGTGTGCAT	0.17 kcal/mol
GTGGTCACGTGGCAGA	0.09 kcal/mol
TGTGACACGTGGGCTG	-0.15 kcal/mol
TTGGACACGTGTCCTG	0.03 kcal/mol
GAGTACACGTGGGTGT	-0.08 kcal/mol
AGAAGCACGTGGGAGC	-0.08 kcal/mol
AATGTCACGTGGATTT	0.25 kcal/mol
CGACTCACGTGGGGTT	0.17 kcal/mol
CTTAGCACGTGTGGGT	0.01 kcal/mol
TGGGTCACGTGTACGT	0.05 kcal/mol
AGGAGCACGTGTTGAA	-0.06 kcal/mol
TATCACACGTGGGATG	0 kcal/mol
TGTAGCACGTGGCTGT	-0.2 kcal/mol
GAGTTCACGTGGAGAG	0.23 kcal/mol
